The other results are listed elsewhere or left out. Rule as the data show it: active = 3.2 or more and inactive = the rest. Most of these values are background signal.
How the values were obtained:
Assay in all cases: enrichment score (SH2-bound / input frequency) (ratio); bacterial display of known human phosphotyrosine sites (pTyr-Var adds point mutants) read by sequencing; higher = stronger binding; tyrosines were phosphorylated by kinases first
Settings in all cases: peptide library: pTyr-Var
[1] = biological target: SHP2 C-SH2 domain E139D
[2] = biological target: SHP2 C-SH2 domain wild-type
[3] = biological target: SHP2 N-SH2 domain L43F
[4] = biological target: SHP2 N-SH2 domain T42A
[5] = biological target: SHP2 N-SH2 domain T52S
[6] = biological target: SHP2 N-SH2 domain wild-type
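Also: displayed peptides selected on beads carrying the immobilized SH2 domain, with library peptides lacking any tyrosine serving as negative controls.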

With DFLEKYFKFGS [NNMT_Y24_YF] the enrichment score [1] was inactive: 2.28, the enrichment score [2] was inactive: 1.54 and the enrichment score [3] was inactive: 1.54. The enrichment score [4] was inactive: 1.47, the enrichment score [5] was inactive: 2.27 and the enrichment score [6] was inactive: 1.94.

For FLEKFYKFGSR [NNMT_Y25_YF], the enrichment score [1] was inactive: 0.818, the enrichment score [2] was inactive: 0.839 and the enrichment score [3] was inactive: 0.67. The enrichment score [4] was inactive: 0.521, the enrichment score [5] was inactive: 0.612 and the enrichment score [6] was inactive: 0.572.

For PVKSEYSSIKL [NPC2_Y119_P120S], the enrichment score [1] was inactive: 1.13, the enrichment score [2] was inactive: 2.71 and the enrichment score [3] was inactive: 0.904. The enrichment score [4] was inactive: 1.2, the enrichment score [5] was inactive: 1.01 and the enrichment score [6] was inactive: 0.86.

For EAEPYYCSLRD [NPHS1_Y1139_R1140C], the enrichment score [1] was inactive: 0.747, the enrichment score [2] was inactive: 0.866 and the enrichment score [3] was inactive: 0.712. The enrichment score [4] was inactive: 0.617, the enrichment score [5] was inactive: 0.631 and the enrichment score [6] was inactive: 1.06.

For EAEPFYRSLRD [NPHS1_Y1139_YF], the enrichment score [1] was inactive: 0.564, the enrichment score [2] was inactive: 0.501 and the enrichment score [3] was inactive: 0.489. For the same binder, the enrichment score [4] was inactive: 0.479, the enrichment score [5] was inactive: 0.601 and the enrichment score [6] was inactive: 0.635.

In the case of CNSFRYGGGGG [NPPA_Y151], the enrichment score [1] is reported as inactive: 0.669, the enrichment score [2] is reported as inactive: 0.747 and the enrichment score [3] is reported as inactive: 0.81. The enrichment score [4] was inactive: 0.685, the enrichment score [5] was inactive: 0.801 and the enrichment score [6] was inactive: 0.806.

For CNSFQYGGGGG [NPPA_Y151_R150Q], the enrichment score [1] was inactive: 0.948, the enrichment score [2] was inactive: 0.718 and the enrichment score [3] was inactive: 0.556. For the same binder, the enrichment score [4] was inactive: 0.543, the enrichment score [5] was inactive: 0.609 and the enrichment score [6] was inactive: 0.825.

For METKGYHSLPE [NR3C2_Y6], the enrichment score [1] was inactive: 0.588, the enrichment score [2] was inactive: 0.652 and the enrichment score [3] was inactive: 0.727. The enrichment score [4] was inactive: 0.563, the enrichment score [5] was inactive: 0.627 and the enrichment score [6] was inactive: 0.814.

For AACQHYGVHTC [NR4A2_Y275_R278H], the enrichment score [1] was inactive: 1.26, the enrichment score [2] was inactive: 1.25 and the enrichment score [3] was inactive: 1.08. For the same binder, the enrichment score [4] was inactive: 1, the enrichment score [5] was inactive: 1.37 and the enrichment score [6] was inactive: 1.14.

EASEQYLTKAS [NRCAM_Y739] was tested, and the enrichment score [1] was inactive: 0.447, the enrichment score [2] was inactive: 0.401 and the enrichment score [3] was inactive: 0.419. For the same binder, the enrichment score [4] was inactive: 0.364, the enrichment score [5] was inactive: 0.551 and the enrichment score [6] was inactive: 1.62.

With ISPPVYLTNEW [NRK_Y885] the enrichment score [1] was inactive: 1.33, the enrichment score [2] was inactive: 0.954 and the enrichment score [3] was inactive: 1.29. For the same binder, the enrichment score [4] was inactive: 1.32, the enrichment score [5] was inactive: 1.19 and the enrichment score [6] was inactive: 1.15.

In the case of QLHEHCKIHKE [NSMAF_Y626_Y626C], the enrichment score [1] is reported as inactive: 3.08, the enrichment score [2] is reported as inactive: 2.31 and the enrichment score [3] is reported as inactive: 2.84. For the same binder, the enrichment score [4] was inactive: 2.65, the enrichment score [5] was inactive: 2.84 and the enrichment score [6] was inactive: 2.46.

INMKKYCKKDY [NTN1_Y490] was tested, and the enrichment score [1] was inactive: 1.78, the enrichment score [2] was inactive: 1.77 and the enrichment score [3] was inactive: 1.62. The enrichment score [4] was inactive: 1.55, the enrichment score [5] was inactive: 1.76 and the enrichment score [6] was inactive: 1.54.

With LVVFEYMRHGD [NTRK1_Y591_M587V] the enrichment score [1] was inactive: 2.58, the enrichment score [2] was inactive: 2.06 and the enrichment score [3] was inactive: 2.52. The enrichment score [4] was inactive: 2.86, the enrichment score [5] was inactive: 2.66 and the enrichment score [6] was inactive: 1.93.

For PESTLYRKFTT [NTRK1_Y701_I699T], the enrichment score [1] was inactive: 0.48, the enrichment score [2] was inactive: 0.458 and the enrichment score [3] was inactive: 0.456. For the same binder, the enrichment score [4] was inactive: 0.481, the enrichment score [5] was inactive: 0.878 and the enrichment score [6] was inactive: 0.398.

In the case of MSRDVYSTDCY [NTRK2_Y702_Y706C], the enrichment score [1] is reported as inactive: 0.794, the enrichment score [2] is reported as inactive: 0.747 and the enrichment score [3] is reported as inactive: 0.664. For the same binder, the enrichment score [4] was inactive: 0.566, the enrichment score [5] was inactive: 0.577 and the enrichment score [6] was inactive: 1.

With FSIDFYRVGGH [NTRK2_Y707_T704I_YF] the enrichment score [1] was inactive: 0.925, the enrichment score [2] was inactive: 1.18 and the enrichment score [3] was inactive: 0.994. For the same binder, the enrichment score [4] was inactive: 1.13, the enrichment score [5] was inactive: 1.08 and the enrichment score [6] was inactive: 1.2.

FSTDCYRVGGH [NTRK2_Y707_Y706C_YF] was tested, and the enrichment score [1] was inactive: 0.898, the enrichment score [2] was inactive: 0.903 and the enrichment score [3] was inactive: 0.903. For the same binder, the enrichment score [4] was inactive: 0.69, the enrichment score [5] was inactive: 0.905 and the enrichment score [6] was inactive: 0.869.

With PLLLSYYLIKW [NUP160_Y773] the enrichment score [1] was inactive: 2.58, the enrichment score [2] was inactive: 1.99 and the enrichment score [3] was inactive: 2.52. The enrichment score [4] was inactive: 1.92, the enrichment score [5] was inactive: 2.62 and the enrichment score [6] was inactive: 2.43.

SLLLSYYLIKW [NUP160_Y773_P768S] was tested, and the enrichment score [1] was active: 3.21, the enrichment score [2] was inactive: 3.04 and the enrichment score [3] was inactive: 3.09. The enrichment score [4] was inactive: 2.79, the enrichment score [5] was inactive: 2.77 and the enrichment score [6] was active: 3.24.

KGKLIYLLGDS [NXPE1_Y350] was tested, and the enrichment score [1] was inactive: 2.4, the enrichment score [2] was inactive: 2 and the enrichment score [3] was inactive: 2.28. For the same binder, the enrichment score [4] was inactive: 2.04, the enrichment score [5] was inactive: 2.03 and the enrichment score [6] was inactive: 2.11.

In the case of SLNAVYPRAGS [OAS3_Y376], the enrichment score [1] is reported as inactive: 0.698, the enrichment score [2] is reported as inactive: 0.594 and the enrichment score [3] is reported as inactive: 0.748. For the same binder, the enrichment score [4] was inactive: 0.629, the enrichment score [5] was inactive: 0.649 and the enrichment score [6] was inactive: 0.651.

EREFKYGAHNF [OAT_Y50_YF] was tested, and the enrichment score [1] was inactive: 0.862, the enrichment score [2] was inactive: 0.736 and the enrichment score [3] was inactive: 0.637. The enrichment score [4] was inactive: 0.612, the enrichment score [5] was inactive: 0.69 and the enrichment score [6] was inactive: 0.728.

For YGAHNHHPLPV [OAT_Y55_Y55H], the enrichment score [1] was active: 3.5, the enrichment score [2] was inactive: 3.19 and the enrichment score [3] was active: 3.28. For the same binder, the enrichment score [4] was inactive: 2.68, the enrichment score [5] was active: 3.24 and the enrichment score [6] was inactive: 2.6.

With FGAHNYHPLPV [OAT_Y55_YF] the enrichment score [1] was inactive: 1.11, the enrichment score [2] was inactive: 0.913 and the enrichment score [3] was inactive: 0.903. The enrichment score [4] was inactive: 0.817, the enrichment score [5] was inactive: 1.11 and the enrichment score [6] was inactive: 0.974.

In the case of DFLSSYSAVNE [OAT_Y85_Q90E], the enrichment score [1] is reported as inactive: 0.903, the enrichment score [2] is reported as inactive: 1.06 and the enrichment score [3] is reported as inactive: 0.824. The enrichment score [4] was inactive: 0.809, the enrichment score [5] was inactive: 0.886 and the enrichment score [6] was inactive: 0.957.

For MKALGYFAVVT [OPA1_Y498], the enrichment score [1] was inactive: 1.14, the enrichment score [2] was inactive: 1.37 and the enrichment score [3] was inactive: 1.08. The enrichment score [4] was inactive: 1.09, the enrichment score [5] was inactive: 0.841 and the enrichment score [6] was inactive: 1.34.

With VVSLFYGTALF [OR10C1_Y251_M246V] the enrichment score [1] was inactive: 1.38, the enrichment score [2] was inactive: 1.84 and the enrichment score [3] was inactive: 1.08. The enrichment score [4] was inactive: 1.09, the enrichment score [5] was inactive: 1.27 and the enrichment score [6] was inactive: 1.98.

In the case of MSYDRYMAICH [OR2A5_Y123], the enrichment score [1] is reported as inactive: 0.828, the enrichment score [2] is reported as inactive: 1.06 and the enrichment score [3] is reported as inactive: 0.883. For the same binder, the enrichment score [4] was inactive: 0.775, the enrichment score [5] was inactive: 0.799 and the enrichment score [6] was inactive: 1.14.

For MSFDRYMAVCH [OR2A5_Y123_I126V_YF], the enrichment score [1] was inactive: 0.923, the enrichment score [2] was inactive: 1.04 and the enrichment score [3] was inactive: 0.832. For the same binder, the enrichment score [4] was inactive: 1.02, the enrichment score [5] was inactive: 0.732 and the enrichment score [6] was inactive: 1.28.

CNPLRYPVLMS [OR2T1_Y182] was tested, and the enrichment score [1] was inactive: 0.976, the enrichment score [2] was inactive: 0.983 and the enrichment score [3] was inactive: 0.898. For the same binder, the enrichment score [4] was inactive: 0.923, the enrichment score [5] was inactive: 0.747 and the enrichment score [6] was inactive: 1.05.

With CNPRRYPVLMS [OR2T1_Y182_L180R] the enrichment score [1] was inactive: 1.2, the enrichment score [2] was inactive: 0.822 and the enrichment score [3] was inactive: 1.08. For the same binder, the enrichment score [4] was inactive: 0.957, the enrichment score [5] was inactive: 1.1 and the enrichment score [6] was inactive: 1.12.

In the case of RSPLRYTSILT [OR51B6_Y130], the enrichment score [1] is reported as inactive: 1.76, the enrichment score [2] is reported as inactive: 2.95 and the enrichment score [3] is reported as inactive: 2.44. For the same binder, the enrichment score [4] was active: 4.02, the enrichment score [5] was active: 3.44 and the enrichment score [6] was inactive: 1.6.

With RNPLRYTSILT [OR51B6_Y130_S126N] the enrichment score [1] was inactive: 1.47, the enrichment score [2] was inactive: 1.82 and the enrichment score [3] was inactive: 2.32. For the same binder, the enrichment score [4] was active: 4.3, the enrichment score [5] was inactive: 3.09 and the enrichment score [6] was inactive: 1.61.

In the case of CNPLCYPTIMI [OR6K6_Y160_R159C], the enrichment score [1] is reported as inactive: 0.586, the enrichment score [2] is reported as inactive: 0.891 and the enrichment score [3] is reported as inactive: 0.724. For the same binder, the enrichment score [4] was inactive: 0.678, the enrichment score [5] was inactive: 0.754 and the enrichment score [6] was inactive: 0.861.

In the case of MAFDRYAAICS [OR8H2_Y123_H120Y_YF], the enrichment score [1] is reported as inactive: 0.847, the enrichment score [2] is reported as inactive: 1.02 and the enrichment score [3] is reported as inactive: 0.82. For the same binder, the enrichment score [4] was inactive: 0.855, the enrichment score [5] was inactive: 0.731 and the enrichment score [6] was inactive: 1.1.

With VASIFYTLVIP [OR8K3_Y277] the enrichment score [1] was active: 3.3, the enrichment score [2] was inactive: 3.05 and the enrichment score [3] was inactive: 3.11. The enrichment score [4] was inactive: 3.04, the enrichment score [5] was inactive: 2.89 and the enrichment score [6] was inactive: 2.93.

From the supplement of paper PMC10369915
